Measurements: ChEMBL document CHEMBL4888484, “Replenishing the malaria drug discovery pipeline: Screening and hit evaluation of the MMV Hit Generation Library 1 (HGL1) against asexual blood stage Plasmodium falciparum ,using a nano luciferase reporter read-out” (2022)
Out of some 150,000 compounds screened, about 540 (0.36%) showed an effect of 50% or more. The list shows a part of the results.

system: Plasmodium falciparum; test: Primary screen in NF54 nanoGlo assay, in single point, at 2uM, 72h; a lower Z score goes with more inhibition; assay type: functional, Erythrocyte; conditions: timepoint 72 hour

| Compound | % Inhibition | Z score |
| --- | --- | --- |
| COc1ccc(S(=O)(=O)N2CCOCC2)cc1C(=O)N1CC(=O)Nc2cc(C)cnc21 | 2% | -0.37 |
| Cc1ccoc1C(=O)NCC(=O)c1cccc2ccccc12 | -21% | 1.77 |
| Cc1cnn(-c2cccc(N3CCO[C@H](c4ccc(F)cc4)C3)n2)c1 | -9% | 1.83 |
| O=C(c1cnccn1)N1CCC[C@@]2(C1)C(=O)Nc1ccccc12 | 1% | -0.2 |
| CCC(C)NC(=O)NC(Cc1ccccc1)C(N)=O (stereo unspecified) | -4% | 0.55 |
| CCOc1ccc(NC(=O)c2nc(N3CCCC3)c3c(C)c(C)n(-c4ccccc4)c3n2)cc1 | -1% | 0.12 |
| Cc1cc(COc2cccc3c2CCC3=O)on1 | -13% | 1.83 |
| Cc1cc(NC(=O)Cc2ccccc2C)sn1 | -5% | 1.08 |
| CS(=O)(=O)c1ccc(Br)c(S(=O)(=O)NC[C@@H](c2ccco2)N2CCCC2)c1 | -6% | 1.16 |
| CC(CCS(C)(=O)=O)NC1CCc2c(Cl)cc(Cl)cc21 (stereo unspecified) | 4% | -0.55 |
| CC(C)c1ccc(N2C(=O)c3cc(-c4cccs4)nn3C[C@@]2(C)C(=O)NCc2ccc(F)cc2)cc1 | -11% | 1.82 |
| COc1ccccc1CN1C(=O)CN(C2CCCC2)C(=O)[C@@H]1c1ccc(F)cc1 | -1% | 0.18 |
| C[C@H](NC(=O)N(C)Cc1nccs1)C(F)(F)F | -5% | 0.82 |
| CC(C)n1cncc1CN(C)CCc1ccccn1 | -2% | 0.22 |
| CC1CC(C)CN(Cc2nnc(-c3cccs3)o2)C1 (stereo unspecified) | 8% | -1.03 |
| CCN(CC(=O)N1CCCCCC1)C(=O)c1ccn(C2CCCCC2)n1 | 5% | -0.59 |
| Cc1oc(-c2ccc(C(=O)N3CCC(C(N)=O)CC3)cc2)nc1CN1CCN(c2ccccc2)CC1 | -6% | 0.78 |
| CN(CC(=O)NCCn1ccnc1-c1cnccn1)S(C)(=O)=O | 3% | -0.42 |
| Cc1nc(C2CCNCC2)cc(N2CCCCCC2)n1 | 4% | -0.69 |
| COCCn1nnnc1[C@@H]1CN(CC(=O)NC2CCCCC2)CCO1 | -16% | 2.87 |
| CCOc1cc2c(cc1OCC)[C@@H]1CC(=O)N(c3ccc(C)c(C)c3)C(=O)N1CC2 | 4% | -0.67 |
| CNS(=O)(=O)c1ccccc1CN[C@@H](C)c1ccc(C)s1 | -8% | 0.92 |
| C#CCN(C[C@H]1CCCO1)C(=O)Nc1ccn(CCOC)n1 | -6% | 0.93 |
